Test results published in patent US20150044245A1, “PARTIAL MHC CONSTRUCTS AND METHODS OF USE” (Oregon Health & Science University, priority 2012, published 2015).

Assays:
[1] = target: RTL binding sites on CD11c+ cells of DR*1501-Tg mouse blood; assay: flow cytometry; blood of naive DR*1501-Tg mice incubated in vitro with FITC-labeled RTL (legend: 500 µg), 90 minutes post-treatment; monocyte gate; No RTL (pre-treatment) panel 0.09%
[2] = target: RTL binding sites on CD11b+ monocytes of DR*1501-Tg mice; assay: flow cytometry; blood of naive DR*1501-Tg mice incubated in vitro with FITC-labeled RTL (legend: 500 µg), 90 minutes post-treatment; LYMPHOCYTE gate; No RTL (pre-treatment) panel 0.00%
[3] = target: RTL binding sites on CD11b+ monocytes of DR*1501-Tg mice; assay: flow cytometry; blood of naive DR*1501-Tg mice incubated in vitro with FITC-labeled RTL (legend: 500 µg), 90 minutes post-treatment; monocyte gate; No RTL (pre-treatment) panel 0.07%
[4] = target: RTL binding sites on CD3+ cells of DR*1501-Tg mouse blood; assay: flow cytometry; blood of naive DR*1501-Tg mice 15 minutes after injection of 500 µg FITC-labeled RTL; monocyte gate, live cells; No RTL (pre-injection) panel 0.12%
[5] = target: RTL binding sites on CD11c+ cells of DR*1501-Tg mouse blood; assay: as above
[6] = target: RTL binding sites on CD19+ cells of DR*1501-Tg mouse blood; assay: as above
[7] = target: RTL binding sites on CD3+ cells of DR*1501-Tg mouse blood; assay: flow cytometry; blood of naive DR*1501-Tg mice 15 minutes after injection of 500 µg FITC-labeled RTL; lymphocyte gate, live cells; No RTL (pre-injection) panel 0.05%
[8] = target: RTL binding sites on CD11b+ monocytes of DR*1501-Tg mice; assay: flow cytometry; blood of naive DR*1501-Tg mice 15 minutes after injection of 500 µg FITC-labeled RTL; monocyte gate, live cells; No RTL (pre-injection) panel 0.14%
[9] = target: RTL binding sites on CD11b+ monocytes of DR*1501-Tg mice; assay: flow cytometry; blood of naive DR*1501-Tg mice 15 minutes after injection of 500 µg FITC-labeled RTL; LYMPHOCYTE gate, live cells; No RTL (pre-injection) panel 0.00%
[10] = target: four-domain MHC class II from DR*1501-Tg mice (human transgene expressed in mouse); assay: direct saturation binding of FITC-labeled construct to MHC class II immuno-adsorbed on Protein L/L243 beads; one-site fit
[11] = target: RTL binding sites on CD3+ cells of DR*1501-Tg mouse blood; assay: flow cytometry; blood of naive DR*1501-Tg mice incubated in vitro with FITC-labeled RTL (legend: 500 µg), 90 minutes post-treatment; monocyte gate; No RTL (pre-treatment) panel 0.00%
[12] = target: RTL binding sites on CD19+ cells of DR*1501-Tg mouse blood; assay: as above
[13] = target: RTL binding sites on CD11c+ cells of DR*1501-Tg mouse blood; assay: flow cytometry; blood of naive DR*1501-Tg mice 15 minutes after injection of 500 µg FITC-labeled RTL; lymphocyte gate, live cells; No RTL (pre-injection) panel 0.00%
[14] = target: RTL binding sites on CD19+ cells of DR*1501-Tg mouse blood; assay: as above
[15] = target: RTL binding sites on CD3+ cells of DR*1501-Tg mouse blood; assay: flow cytometry; blood of naive DR*1501-Tg mice incubated in vitro with FITC-labeled RTL (legend: 500 µg), 90 minutes post-treatment; lymphocyte gate; No RTL (pre-treatment) panel 0.00%
[16] = target: RTL binding sites on CD11c+ cells of DR*1501-Tg mouse blood; assay: as above
[17] = target: RTL binding sites on CD19+ cells of DR*1501-Tg mouse blood; assay: as above

- % of cells in the upper right quadrant (CD11c APC+, RTL FITC+) [1]: 6.12%
- % of cells in the upper right quadrant (CD11b PE+, RTL FITC+) [2]: 4.31%
- % of cells in the upper right quadrant (CD11b PE+, RTL FITC+) [3]: 78.9%
- % of cells in the upper right quadrant (CD3 PE+, RTL FITC+) [4]: 5.51%
- % of cells in the upper right quadrant (CD11c APC+, RTL FITC+) [5]: 12.3%
- % of cells in the upper right quadrant (CD19 APC+, RTL FITC+) [6]: 5.99%
- % of cells in the upper right quadrant (CD3 PE+, RTL FITC+) [7]: 0.37%
- % of cells in the upper right quadrant (CD11b PE+, RTL FITC+) [8]: 60.8%
- % of cells in the upper right quadrant (CD11b PE+, RTL FITC+) [9]: 16.2%
- Kd [10]: 2.04 nM
- % of cells in the upper right quadrant (CD3 PE+, RTL FITC+) [11]: 4.7%
- % of cells in the upper right quadrant (CD19 APC+, RTL FITC+) [12]: 10.1%
- % of cells in the upper right quadrant (CD11c APC+, RTL FITC+) [13]: 4.15%
- % of cells in the upper right quadrant (CD19 APC+, RTL FITC+) [14]: 1.63%
- % of cells in the upper right quadrant (CD3 PE+, RTL FITC+) [15]: 2.69%
- % of cells in the upper right quadrant (CD11c APC+, RTL FITC+) [16]: 2.72%
- % of cells in the upper right quadrant (CD19 APC+, RTL FITC+) [17]: 4.87%
Substance: RTL342M (pDR2/mMOG-35-55) (peptide-MHC)
